In PubChem BioAssay (NCATS) one finds AC50 and max response data, which are given here for 39 compounds.

Broadly, the AC50 is the concentration giving half of the maximal activity seen.

SMILES strings stand for the structures. “And” between values parts separate entries of the source, which are not always exact repeats. Identical values can stand only once. This is one part of the list. Further columns of the screen follow, without active or inactive calls. Most of these compounds were active or inconclusive in the main read-out, so they are no random draw. Words in brackets tell the shape of the fitted curve; partial curves, single points and poor fits give uncertain potencies.
Tags describe the fitted curve by direction and shape.

The first assay in a line: qHTS Assay for Lipid Storage Modulators (AID 1519). To be noted: Drosophila S3 cells, BODIPY lipid droplet/cell ratio, laser cytometry; measured here: lipid (BODIPY) channel AC50; cells loaded with oleic acid. In a few lines:
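Cells seeded at 5,000 per well were treated with compounds over a concentration series and loaded with oleic acid (400 uM, as added). Lipid droplet fluorescence (488 nm excitation, 500-530 nm channel) was read by laser-scanning cytometry and normalized to 20 uM Triacsin C.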
Consider `N#Cc1cccc(NC(=O)N2CCCC3(CCN(C(=O)c4cccc(F)c4)CC3)C2)c1`, for which the AC50 was 0.158 µM [rising, full curve, poor fit].

For `CCCCOc1cc(C[C@@H]2CNC(=O)N2)ccc1OC`, the AC50 is 17.8 µM [rising, partial curve, poor fit].

With `C=C(CO)C1Cc2c(ccc3c(=O)c4c(oc23)COc2cc(OC)c(OC)cc2-4)O1` (stereo not drawn), the AC50 was 6.31 µM [rising, full curve, poor fit].

Consider `Cn1cc(-c2nc3cncnc3n(CCN)c2=O)c2ccccc21`, for which the AC50 is 0.355 µM [rising, full curve].

Still in this assay, the particulars now being: Drosophila S3 cells, BODIPY lipid droplet/cell ratio, laser cytometry; measured here: lipid channel max response; cells loaded with oleic acid.
`c1cncc(-c2nccc(NCc3cccs3)n2)c1`: the max response came to 19.5%.

`O[C@H](CCCN1CCN(c2ncc(F)cn2)CC1)c1ccc(F)cc1`: the max response stood at 71.6%.

With `COc1cccc(Nc2ncc3nc(-c4ccccc4)c(=O)n(C)c3n2)c1`, the max response was 5.45%.

Consider `CO[C@]12C[C@@H](COC(=O)c3cncc(Br)c3)CN(C)[C@@H]1Cc1cn(C)c3cccc2c13`, for which the max response stood at 155%.

On to `COC(=O)C1OC(=O)C2OC23[C@]2(C)C(OC(C)=O)CC4C(C)(C)C(=O)CC[C@]4(C)C2CC[C@@]13C` (stereo partly drawn), for which the max response was 39.2%.

As to `COc1cc(/C=C/C(=O)N2CCCCC2=O)cc(OC)c1OC`, the max response is -27.4%.

With `COCCn1c(=O)c(-c2ccc(OC)cc2)nc2cnc(N3CCNCC3)nc21`, the max response was determined as 39.7%.

`CCCCCCc1c(C[C@H](N)C(=O)O)o[nH]c1=O`: the max response was 34% and 2.34%.

For the compound `COc1cccc(-c2ccc3ncnc(N4CCOCC4)c3c2)c1`, the max response worked out at 14.8%.

In the case of `O=C(Cc1ccc(Cl)cc1)c1c(O)cc(O)cc1O`, the max response worked out at 79.8%.

For the compound `CC(N)(C(=O)O)c1ccc(C(=O)O)cc1` (stereo not drawn), the max response was 38.3%.

In the case of `COc1ccc(-c2nc3cnc(N(C)C)nc3n(C[C@H]3CCCO3)c2=O)cc1`, the max response is -20.5%.

As to `COc1cccc(-c2nc(N(C)C)c3ccccc3n2)c1`, the max response turned out to be 53.1%.

As for `COc1cc2c(cc1OC)-c1cc3nc4ccccc4nc3n1C(C)(C)C2`, the max response is -88.2%.

Turning to `COc1ccc(CNc2ncnc3ccc(-c4ccccc4C#N)cc23)c(OC)c1`, the max response turned out to be 39.5%.

For `CC(=O)c1ccc[nH]1`, the max response was found to be 15.3%.

Turning to `CN(C)CCCCSC(=N)N`, the max response is -35% and 25.7%.

Take `CN(C)c1ncc2nc(-c3ccccc3)c(=O)n(C3CC3)c2n1`: the max response was 27.8%.

`COc1ccccc1CNc1nc(-c2cccc(C#N)c2)nc2ccccc12`: the max response was determined as 35.8%.

As to `COc1ncc2nc(CCc3ccccc3)c(=O)n(Cc3ccc(F)cc3)c2n1`, the max response was 18.2%.

For `COc1ccc(CNc2ncncc2-c2ccccc2C(F)(F)F)c(OC)c1`, the max response was 37.8%.

As to `CN(Cc1ccco1)c1ncnc2ccc(-c3ccoc3)cc12`, the max response worked out at 20.1%.

Turning to `CN1CCc2cc3c(cc2[C@@H]1[C@@H]1C(=O)Oc2c1ccc1c2OCO1)OCO3`, the max response stood at 98.2%.

With `CCCNC(=O)N1N=C(c2ccc(N)cc2)c2cc3c(cc2[C@H]1C)OCO3`, the max response is 121%.

Consider `O=c1c(-c2cccc(Cl)c2)nc2cncnc2n1Cc1ccc(F)cc1`, for which the max response turned out to be 2.45%.

With `COc1cccc(Cn2c(=O)c(C)nc3cnc(Oc4cccc(Cl)c4)nc32)c1`, the max response was 40.9%.

With `COc1ccc(Oc2ncc3nc(-c4cc(F)cc(F)c4)c(=O)n(C4CC4)c3n2)cc1`, the max response was -4.55%.

Turning to `N#Cc1cccc(-c2nc(NCc3ccccc3)c3ccccc3n2)c1`, the max response came to 47.2%.

As to `CC1(C)CC[C@]2(C(=O)O)CC[C@]3(C)C(=CCC4[C@@]5(C)CC[C@H](O)C(C)(C)[C@@H]5CC[C@]43C)C2C1` (stereo partly drawn), the max response came to 88.7%.

`Cn1c(-c2nc(-c3ccccc3)cs2)nc2ccccc21`: the max response came to 67.2%.

For the compound `COc1cccc(Nc2ncc3nc(-c4cccs4)c(=O)n(CCC#N)c3n2)c1`, the max response was -46.4%.

`COc1ccc(CNc2cc(-c3ccccc3OC)ncn2)c(OC)c1`: the max response amounted to 43.6%.

Turning to `COc1ccc(C(=O)N2CCC3(CCCN(c4cccc(-c5ccccc5)c4)C3)CC2)cc1`, the max response is -31.1%.

In the case of `COc1ccc(Oc2ncc3nc(-c4cc(F)cc(F)c4)c(=O)n(C[C@H]4CCCO4)c3n2)cc1`, the max response is -2.05%.

Take `COc1cccc(-c2cncnc2NCCc2c[nH]c3ccc(OC)cc23)c1`: the max response turned out to be 41%.

On to `N#Cc1cccc(NC(=O)N2CCCC3(CCN(C(=O)c4cccc(F)c4)CC3)C2)c1`, for which the max response worked out at 43.9%.

In the case of `CCCCOc1cc(C[C@@H]2CNC(=O)N2)ccc1OC`, the max response was 99.9%.

Turning to `C=C(CO)C1Cc2c(ccc3c(=O)c4c(oc23)COc2cc(OC)c(OC)cc2-4)O1` (stereo not drawn), the max response turned out to be 58.4%.

For `Cn1cc(-c2nc3cncnc3n(CCN)c2=O)c2ccccc21`, the max response was found to be 26.8%.
